According to a collection of fitness landscapes (doi:10.1126/science.1257360):
The other results are listed elsewhere or left out.

B1: PhoQ; a variant is named by its letters at X, in order, P23837 (parent)
chain: MKKLLRLFFPLSLRVRFLLATAAVVLVLSLAYGMVALIGYSVSFDKTTFRLLRGESNLFYTLAKWENNKLHVELPENIDKQSPTMTLIYDENGQLLWAQRDVPWLMKMIQPDWLKSNGFHEIEADVNDTSLLLSGDHSIQQQLQEVREDDDDAEMTHSVAVNVYPATSRMPKLTIVVVDTIPVELKSSYMVWSWFIYVLSANLLLVIPLLWVAAWWSLRPIEALAKEVRELEEHNRELLNPATTRELTSLVRNLNRLLKSERERYDKYRTTLTDLTHSLKTPLXXLQXXLRSLRSEKMSVSDAEPVMLEQISRISQQIGYYLHRASMRGGTLLSRELHPVAPLLDNLTSALNKVYQRKGVNISLDISPEISFVGEQNDFVEVMGNVLDNACKYCLEFVEISARQTDEHLYIVVEDDGPGIPLSKREVIFDRGQRVDTLRPGQGVGLAVAREITEQYEGKIVAGESMLGGARMEVIFGRQHSAPKDE

Variants of: B1
Assay: enrichment ratio after two sorts for PhoP signalling (ratio (wild type AVST 3.29)); higher = more functional
Settings: with PhoP (E. coli)

QQMR and ADDL cannot be ordered by enrichment ratio: ≤ 0.25 for the first, ≤ 0.25 for the second.

LRHV and HPNQ cannot be ordered by enrichment ratio: ≤ 0.25 for the first, ≤ 0.25 for the second.

ILAE and PLRP cannot be ordered by enrichment ratio: ≤ 0.25 for the first, ≤ 0.25 for the second.

IFLK and RQRM cannot be ordered by enrichment ratio: ≤ 0.25 for the first, ≤ 0.25 for the second.

HRAH and TGAR cannot be ordered by enrichment ratio: ≤ 0.25 for the first, ≤ 0.25 for the second.

Compared with TITV, HRWC is lower in enrichment ratio: 15.1 for the first, ≤ 0.25 for the second.

SHEV and PTTS cannot be ordered by enrichment ratio: ≤ 0.25 for the first, ≤ 0.25 for the second.

First: IRDC
Second: MAHY
The enrichment ratio of the first is lower: ≤ 0.25 for the first, 20.2 for the second.

NEGD and KDHA cannot be ordered by enrichment ratio: ≤ 0.25 for the first, ≤ 0.25 for the second.

LAAQ and FGGE cannot be ordered by enrichment ratio: ≤ 0.25 for the first, ≤ 0.25 for the second.

VKSH and RAED cannot be ordered by enrichment ratio: ≤ 0.25 for the first, ≤ 0.25 for the second.

KLAW and PWYW cannot be ordered by enrichment ratio: ≤ 0.25 for the first, ≤ 0.25 for the second.

VAKP and HTKN cannot be ordered by enrichment ratio: ≤ 0.25 for the first, ≤ 0.25 for the second.

PSDG and LGPC cannot be ordered by enrichment ratio: ≤ 0.25 for the first, ≤ 0.25 for the second.

VTEH and KSFP cannot be ordered by enrichment ratio: ≤ 0.25 for the first, ≤ 0.25 for the second.

VWWQ and DYQV cannot be ordered by enrichment ratio: ≤ 0.25 for the first, ≤ 0.25 for the second.

PMSH and KAHN cannot be ordered by enrichment ratio: ≤ 0.25 for the first, ≤ 0.25 for the second.

MDSG and NREI cannot be ordered by enrichment ratio: ≤ 0.25 for the first, ≤ 0.25 for the second.

FFIV and RFYM cannot be ordered by enrichment ratio: ≤ 0.25 for the first, ≤ 0.25 for the second.

VTCG and EHNY cannot be ordered by enrichment ratio: ≤ 0.25 for the first, ≤ 0.25 for the second.

HNYF and IDFS cannot be ordered by enrichment ratio: ≤ 0.25 for the first, ≤ 0.25 for the second.

Going from NCER to ANQL, the enrichment ratio rises from ≤ 0.25 to 1.42.

MCPH and DHQM cannot be ordered by enrichment ratio: ≤ 0.25 for the first, ≤ 0.25 for the second.

ADRS and DLLK cannot be ordered by enrichment ratio: ≤ 0.25 for the first, ≤ 0.25 for the second.

ENKP and RMDV cannot be ordered by enrichment ratio: ≤ 0.25 for the first, ≤ 0.25 for the second.

Compared with KPII, TADV is higher in enrichment ratio: ≤ 0.25 for the first, 0.922 for the second.

PTWV and HTDH cannot be ordered by enrichment ratio: ≤ 0.25 for the first, ≤ 0.25 for the second.

ANDF and QWDS cannot be ordered by enrichment ratio: ≤ 0.25 for the first, ≤ 0.25 for the second.

PTQV and QHHK cannot be ordered by enrichment ratio: ≤ 0.25 for the first, ≤ 0.25 for the second.

GTSR and FYAH cannot be ordered by enrichment ratio: ≤ 0.25 for the first, ≤ 0.25 for the second.

LRAR and DFRH cannot be ordered by enrichment ratio: ≤ 0.25 for the first, ≤ 0.25 for the second.

LFHK and WPAF cannot be ordered by enrichment ratio: ≤ 0.25 for the first, ≤ 0.25 for the second.

SLER and WEQC cannot be ordered by enrichment ratio: ≤ 0.25 for the first, ≤ 0.25 for the second.

KVLR and ELMP cannot be ordered by enrichment ratio: ≤ 0.25 for the first, ≤ 0.25 for the second.

MRPQ and VKQD cannot be ordered by enrichment ratio: ≤ 0.25 for the first, ≤ 0.25 for the second.

DCKE and IWQS cannot be ordered by enrichment ratio: ≤ 0.25 for the first, ≤ 0.25 for the second.

TKDK and EREV cannot be ordered by enrichment ratio: ≤ 0.25 for the first, ≤ 0.25 for the second.

EEHQ and LDMM cannot be ordered by enrichment ratio: ≤ 0.25 for the first, ≤ 0.25 for the second.

WFCK and TMPD cannot be ordered by enrichment ratio: ≤ 0.25 for the first, ≤ 0.25 for the second.

HCWP and RTYL cannot be ordered by enrichment ratio: ≤ 0.25 for the first, ≤ 0.25 for the second.

YFLM and IWSP cannot be ordered by enrichment ratio: ≤ 0.25 for the first, ≤ 0.25 for the second.

EEYP and LNYM cannot be ordered by enrichment ratio: ≤ 0.25 for the first, ≤ 0.25 for the second.

First: NLSK
Second: MRFP
The enrichment ratio of the first is higher: 0.526 for the first, ≤ 0.25 for the second.

VDIL and RPQK cannot be ordered by enrichment ratio: ≤ 0.25 for the first, ≤ 0.25 for the second.

HPLK and DGKF cannot be ordered by enrichment ratio: ≤ 0.25 for the first, ≤ 0.25 for the second.

Going from VAYL to MKKV, the enrichment ratio falls from 3.85 to ≤ 0.25.

DMRF and NTRK cannot be ordered by enrichment ratio: ≤ 0.25 for the first, ≤ 0.25 for the second.

Compared with YCRP, TIWR is higher in enrichment ratio: ≤ 0.25 for the first, 0.859 for the second.

KIHG and QIVI cannot be ordered by enrichment ratio: ≤ 0.25 for the first, ≤ 0.25 for the second.

RQLK and TDPV cannot be ordered by enrichment ratio: ≤ 0.25 for the first, ≤ 0.25 for the second.

Going from MDDE to ANNL, the enrichment ratio rises from ≤ 0.25 to 15.7.

FWGM and WLSN cannot be ordered by enrichment ratio: ≤ 0.25 for the first, ≤ 0.25 for the second.

VKIL and QAKK cannot be ordered by enrichment ratio: ≤ 0.25 for the first, ≤ 0.25 for the second.

TGDE and YLWT cannot be ordered by enrichment ratio: ≤ 0.25 for the first, ≤ 0.25 for the second.

DEFL and WWCV cannot be ordered by enrichment ratio: ≤ 0.25 for the first, ≤ 0.25 for the second.

YFDE and QDMQ cannot be ordered by enrichment ratio: ≤ 0.25 for the first, ≤ 0.25 for the second.

SFIV and MKVD cannot be ordered by enrichment ratio: ≤ 0.25 for the first, ≤ 0.25 for the second.

DLMW and EKSN cannot be ordered by enrichment ratio: ≤ 0.25 for the first, ≤ 0.25 for the second.

HTGN and QFGG cannot be ordered by enrichment ratio: ≤ 0.25 for the first, ≤ 0.25 for the second.

FIQV and QKQY cannot be ordered by enrichment ratio: ≤ 0.25 for the first, ≤ 0.25 for the second.

Going from TVMN to LCTI, the enrichment ratio falls from 8.14 to ≤ 0.25.

QMKC and LDHV cannot be ordered by enrichment ratio: ≤ 0.25 for the first, ≤ 0.25 for the second.

DQPG and WNVG cannot be ordered by enrichment ratio: ≤ 0.25 for the first, ≤ 0.25 for the second.

Compared with GLCH, QRVD is lower in enrichment ratio: 2.53 for the first, ≤ 0.25 for the second.

GNVW and NKCW cannot be ordered by enrichment ratio: ≤ 0.25 for the first, ≤ 0.25 for the second.

YSNK and LYQG cannot be ordered by enrichment ratio: ≤ 0.25 for the first, ≤ 0.25 for the second.

KTAG and KAMA cannot be ordered by enrichment ratio: ≤ 0.25 for the first, ≤ 0.25 for the second.

First: IHTS
Second: AILS
The enrichment ratio of the first is lower: ≤ 0.25 for the first, 9.63 for the second.

KGWS and WDRT cannot be ordered by enrichment ratio: ≤ 0.25 for the first, ≤ 0.25 for the second.

LWCA and YWKK cannot be ordered by enrichment ratio: ≤ 0.25 for the first, ≤ 0.25 for the second.

HPHC and ERPF cannot be ordered by enrichment ratio: ≤ 0.25 for the first, ≤ 0.25 for the second.

VNRV and FPAD cannot be ordered by enrichment ratio: ≤ 0.25 for the first, ≤ 0.25 for the second.

TCMD and IIGL cannot be ordered by enrichment ratio: ≤ 0.25 for the first, ≤ 0.25 for the second.

IPWI and ITYF cannot be ordered by enrichment ratio: ≤ 0.25 for the first, ≤ 0.25 for the second.

DKCT and NKWG cannot be ordered by enrichment ratio: ≤ 0.25 for the first, ≤ 0.25 for the second.

FFMY and GEWW cannot be ordered by enrichment ratio: ≤ 0.25 for the first, ≤ 0.25 for the second.

HHWR and YCCD cannot be ordered by enrichment ratio: ≤ 0.25 for the first, ≤ 0.25 for the second.

KPTP and YTMK cannot be ordered by enrichment ratio: ≤ 0.25 for the first, ≤ 0.25 for the second.

GFIM and YHKN cannot be ordered by enrichment ratio: ≤ 0.25 for the first, ≤ 0.25 for the second.

VLPK and PSNI cannot be ordered by enrichment ratio: ≤ 0.25 for the first, ≤ 0.25 for the second.

PNAD and VEIW cannot be ordered by enrichment ratio: ≤ 0.25 for the first, ≤ 0.25 for the second.

FKHV and PHWI cannot be ordered by enrichment ratio: ≤ 0.25 for the first, ≤ 0.25 for the second.

PMVT and AWMW cannot be ordered by enrichment ratio: ≤ 0.25 for the first, ≤ 0.25 for the second.

Going from FSAC to QTFG, the enrichment ratio rises from ≤ 0.25 to 2.14.

VLAI and PLKC cannot be ordered by enrichment ratio: ≤ 0.25 for the first, ≤ 0.25 for the second.

SFQK and RWKY cannot be ordered by enrichment ratio: ≤ 0.25 for the first, ≤ 0.25 for the second.

WSIW and QFWN cannot be ordered by enrichment ratio: ≤ 0.25 for the first, ≤ 0.25 for the second.

LIRG and MRSC cannot be ordered by enrichment ratio: ≤ 0.25 for the first, ≤ 0.25 for the second.

MATT and RAKP cannot be ordered by enrichment ratio: ≤ 0.25 for the first, ≤ 0.25 for the second.

Compared with LHVL, TISN is higher in enrichment ratio: ≤ 0.25 for the first, 13.4 for the second.

First: ATLH
Second: GRHY
The enrichment ratio of the first is higher: 11.5 for the first, ≤ 0.25 for the second.

First: YAMH
Second: AVVI
The enrichment ratio of the first is lower: ≤ 0.25 for the first, 3.1 for the second.

KVHG and DLFI cannot be ordered by enrichment ratio: ≤ 0.25 for the first, ≤ 0.25 for the second.

First: GKCV
Second: AGVN
The enrichment ratio of the first is lower: ≤ 0.25 for the first, 6.57 for the second.

FGTP and DDAK cannot be ordered by enrichment ratio: ≤ 0.25 for the first, ≤ 0.25 for the second.

EVPI and QPRM cannot be ordered by enrichment ratio: ≤ 0.25 for the first, ≤ 0.25 for the second.

RAPT and FHFA cannot be ordered by enrichment ratio: ≤ 0.25 for the first, ≤ 0.25 for the second.

NQMV was tested, and the enrichment ratio was ≤ 0.25.
